Reference: the supplement of paper PMC10126150
Values marked as one replicate rest on one cluster of the flow cell; about a third of the high ones do not repeat.

Each sequence was assayed on ATP (assay: switch fluorescence ratio, 500 uM ATP over buffer (Cy3 cluster intensity, sum of 5 cycles each) (fold (ratio)); higher = stronger signal-on switching upon ATP binding; sequences stand for … in TCGTCGGCAGCGTCAGATGTGTATAAGAGACAGTTTTTTTTTTTTTTTTTTTTTTTTT…TC). Details: aptamer strand: ATP DNA aptamer (quencher-CACCTGGGGGAGTATTGCGGAGGAAGG + anchor), 100 nM annealed; ATP concentration: 500 uM; one replicate.
Summary of the method: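 Five buffer/ATP imaging cycles were run on Cy3-labelled switching-strand clusters on a modified Illumina MiSeq flow-cell, with NaOH stripping and re-annealing between cycles. In each cycle, clusters annealed to 100 nM quencher-labelled ATP aptamer were imaged in selection buffer, then after 15 min with 500 uM ATP at 22 °C. Per cluster, the fluorescence ratio is summed target-cycle over summed buffer-cycle Cy3 intensity, averaged per switch-domain sequence. Only clusters within 100-1000 RFU were kept.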
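Further: ATP exposure 15 min at 22 °C before imaging.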

| Sequence | switch fluorescence ratio |
| --- | --- |
| CTTCTGGGCA | 1.14 |
| CTTCTGTCGG | 1.02 |
| CTTCTTAGCT | 0.976 |
| CTTGAACATT | 1.03 |
| CTTGACGGGA | 1.2 |
| CTTGACTAT | 0.954 |
| CTTGAGAGGG | 0.963 |
| CTTGAGCCCC | 1.44 |
| CTTGATAAGG | 0.988 |
| CTTGCAAC | 0.993 |
| CTTGCATGTC | 1.09 |
| CTTGCCAGCG | 1.06 |
| CTTGCGGCGC | 0.964 |
| CTTGCGGGAT | 1.05 |
| CTTGCGTTGG | 0.985 |
| CTTGGATGTG | 1.04 |
| CTTGGCACAA | 1.04 |
| CTTGGCCAGG | 1.04 |
| CTTGGCTACG | 1 |
| CTTGGCTTCT | 1.01 |
| CTTGGGGAAG | 1.02 |
| CTTGGGTGTA | 0.966 |
| CTTGGTACGC | 1.12 |
| CTTGGTGCCG | 0.997 |
| CTTGGTTCCA | 1.05 |

| Sequence | switch fluorescence ratio |
| --- | --- |
| CTTGTGCCTG | 1.01 |
| CTTGTGGCAG | 1.06 |
| CTTGTGTAT | 1 |
| CTTGTGTTAG | 0.993 |
| CTTGTTGACC | 0.989 |
| CTTGTTGTTG | 1.04 |
| CTTGTTTATC | 0.973 |
| CTTGTTTTTT | 0.987 |
| CTTTAACGCT | 1.22 |
| CTTTAAGAGG | 1.03 |
| CTTTAATGAG | 1 |
| CTTTAATTGG | 1.04 |
| CTTTACATGA | 1.06 |
| CTTTACCAAC | 1.21 |
| CTTTAGAAGT | 0.979 |
| CTTTAGAATT | 1 |
| CTTTAGTAGT | 1.01 |
| CTTTAGTGGG | 1.03 |
| CTTTATACGT | 1.05 |
| CTTTATTTTT | 1.04 |
| CTTTCCACG | 1.09 |
| CTTTCGAGGA | 1.04 |
| CTTTCGGAGT | 1.05 |
| CTTTCGTAAC | 1.1 |
| CTTTCTTCCC | 1.13 |

| Sequence | switch fluorescence ratio |
| --- | --- |
| CTTTGAAACG | 1 |
| CTTTGAACAT | 1.01 |
| CTTTGACGTA | 1 |
| CTTTGCCGCA | 1.38 |
| CTTTGGACG | 1.03 |
| CTTTGGTCAA | 1.05 |
| CTTTGGTGGA | 1.02 |
| CTTTGGTTGG | 0.916 |
| CTTTGTGGGA | 0.998 |
| CTTTGTTTTC | 0.961 |
| CTTTTACGGT | 1.01 |
| CTTTTAGGCC | 0.956 |
| CTTTTATGGT | 0.977 |
| CTTTTCCGAG | 1.19 |
| CTTTTGGCAA | 1.29 |
| CTTTTTATTA | 1 |
| CTTTTTGTAT | 0.97 |
| CTTTTTTCCT | 1.02 |
| GAAAAAACTA | 1.01 |
| GAAAAAGAAC | 0.981 |
| GAAAAATTAG | 1.02 |
| GAAAACTTGC | 1.14 |
| GAAAAGTTAG | 0.982 |
| GAAAATAAAC | 1.69 |
| GAAAATAAGT | 1.02 |

| Sequence | switch fluorescence ratio |
| --- | --- |
| GAAAATCTAA | 0.968 |
| GAAAATGCTG | 0.956 |
| GAAAATTGAA | 0.982 |
| GAAACGGGAG | 1.08 |
| GAAACTCCTT | 1.01 |
| GAAACTTAAG | 0.992 |
| GAAACTTGGG | 0.958 |
| GAAAGCGACT | 1.08 |
| GAAAGCTACG | 1.02 |
| GAAAGCTATG | 1.02 |
| GAAAGGAACA | 1.02 |
| GAAAGGACCG | 1.14 |
| GAAAGGTGAC | 1.07 |
| GAAAGGTGGA | 1.01 |
| GAAAGTAGA | 0.975 |
| GAAAGTGGCG | 0.969 |
| GAAAGTGGCT | 0.981 |
| GAAAGTTGTT | 0.94 |
| GAAATAGGTG | 1.12 |
| GAAATCGCCC | 1.05 |
| GAAATGCTGT | 1.03 |
| GAAATTTCAA | 0.994 |
| GAACACCGAT | 1.08 |
| GAACAGGCTA | 1.04 |
| GAACATTGAT | 1 |

| Sequence | switch fluorescence ratio |
| --- | --- |
| GAACCCCCGC | 1.67 |
| GAACCCCGT | 0.973 |
| GAACCCGAGG | 1.04 |
| GAACCGCCGA | 1.13 |
| GAACCTAGCG | 1.06 |
| GAACGAATCG | 1.01 |
| GAACGACGGA | 1.03 |
| GAACGACTAT | 1.05 |
| GAACGCCGGG | 1.03 |
| GAACGGTGAG | 1.01 |
| GAACGTACAC | 1.84 |
| GAACTATGTT | 1 |
| GAACTGGGG | 0.969 |
| GAACTTAATC | 1.04 |
| GAACTTAGTT | 1.01 |
| GAACTTGACA | 1.06 |
| GAAGAAAAAT | 1 |
| GAAGAATGGC | 0.984 |
| GAAGACTTAA | 0.976 |
| GAAGAGGAGT | 1 |
| GAAGATACGC | 1.05 |
| GAAGATGTCA | 0.926 |
| GAAGCCGCA | 1.15 |
| GAAGCGGCGA | 1.02 |
| GAAGCTTAGG | 1.03 |

| Sequence | switch fluorescence ratio |
| --- | --- |
| GAAGGATACA | 1.04 |
| GAAGGATACG | 0.976 |
| GAAGGCAGAC | 1.97 |
| GAAGGGACAA | 1.04 |
| GAAGGGTTAG | 1.01 |
| GAAGGTCATA | 1 |
| GAAGGTCCAT | 1.01 |
| GAAGTAAAGC | 1.17 |
| GAAGTAATAT | 2.2 |
| GAAGTACAG | 1.21 |
| GAAGTCGGGA | 0.953 |
| GAAGTCTAA | 1.09 |
| GAAGTCTGAG | 0.992 |
| GAAGTTGCTC | 1.01 |
| GAATAAAGAT | 0.989 |
| GAATAACCGG | 0.946 |
| GAATAAGCC | 1.06 |
| GAATAATAGT | 0.989 |
| GAATAATCGG | 1.02 |
| GAATAATGTG | 0.967 |
| GAATACTCCG | 1.87 |
| GAATAGGCCA | 0.968 |
| GAATATTATA | 1.01 |
| GAATCAGACT | 0.97 |
| GAATCCTGAG | 1.15 |

| Sequence | switch fluorescence ratio |
| --- | --- |
| GAATCGGTTT | 1 |
| GAATCTAATA | 1.02 |
| GAATGAGGGG | 0.996 |
| GAATGATTAC | 1.1 |
| GAATGCCACG | 1.09 |
| GAATGCTTTA | 1 |
| GAATGGATAG | 0.966 |
| GAATGGGCTC | 0.949 |
| GAATGGTGTC | 1.01 |
| GAATGTCGGA | 1 |
| GAATGTGAGT | 0.945 |
| GAATGTTACG | 1.03 |
| GAATGTTGGA | 0.938 |
| GAATGTTTGT | 0.981 |
| GAATTAACCG | 1.09 |
| GAATTATGCG | 0.945 |
| GAATTCGTAA | 1.06 |
| GAATTTCTAC | 1.09 |
| GAATTTCTGT | 1.02 |
| GAATTTGCTA | 0.979 |
| GACAAATGAC | 1.25 |
| GACAACGCTT | 1.65 |
| GACAACGTCC | 0.955 |
| GACAATTACA | 1.06 |
| GACACACGTT | 1.04 |

| Sequence | switch fluorescence ratio |
| --- | --- |
| GACACCCTAA | 1.08 |
| GACACCGACG | 1.51 |
| GACACCGGCC | 1.32 |
| GACACCGGGC | 1.12 |
| GACACGAGAT | 2.01 |
| GACACGCCAT | 1.27 |
| GACACTGCGT | 1 |
| GACAGATCA | 0.994 |
| GACAGCCTCT | 1.08 |
| GACAGGAAGG | 0.984 |
| GACAGGTAAT | 0.993 |
| GACAGTGATG | 0.888 |
| GACAGTGTAC | 1.29 |
| GACATAAGGA | 1.01 |
| GACATCGATC | 1.02 |
| GACATGGCGC | 0.976 |
| GACATGGTGG | 1 |
| GACATTATTA | 1.02 |
| GACATTCGAG | 1 |
| GACATTGATA | 1.02 |
| GACATTTAG | 0.991 |
| GACCACTT | 1.08 |
| GACCCAAGAG | 1.01 |
| GACCCTATGT | 1.03 |
| GACCCTGGTG | 1.6 |
